The whole screen tested about 310,000 compounds, of which about 2,200 (0.71%) showed an effect of 50% or more. The effect is printed as a negative number. This is one part of the list.

This test deals with human ether-à-go-go-related gene (hERG) potassium channel (human, UniProt Q12809). Briefly: primary screen, population patch clamp on CHO cells stably expressing hERG.
Sequence of human ether-à-go-go-related gene (hERG) potassium channel (Q12809 whole entry, looked up): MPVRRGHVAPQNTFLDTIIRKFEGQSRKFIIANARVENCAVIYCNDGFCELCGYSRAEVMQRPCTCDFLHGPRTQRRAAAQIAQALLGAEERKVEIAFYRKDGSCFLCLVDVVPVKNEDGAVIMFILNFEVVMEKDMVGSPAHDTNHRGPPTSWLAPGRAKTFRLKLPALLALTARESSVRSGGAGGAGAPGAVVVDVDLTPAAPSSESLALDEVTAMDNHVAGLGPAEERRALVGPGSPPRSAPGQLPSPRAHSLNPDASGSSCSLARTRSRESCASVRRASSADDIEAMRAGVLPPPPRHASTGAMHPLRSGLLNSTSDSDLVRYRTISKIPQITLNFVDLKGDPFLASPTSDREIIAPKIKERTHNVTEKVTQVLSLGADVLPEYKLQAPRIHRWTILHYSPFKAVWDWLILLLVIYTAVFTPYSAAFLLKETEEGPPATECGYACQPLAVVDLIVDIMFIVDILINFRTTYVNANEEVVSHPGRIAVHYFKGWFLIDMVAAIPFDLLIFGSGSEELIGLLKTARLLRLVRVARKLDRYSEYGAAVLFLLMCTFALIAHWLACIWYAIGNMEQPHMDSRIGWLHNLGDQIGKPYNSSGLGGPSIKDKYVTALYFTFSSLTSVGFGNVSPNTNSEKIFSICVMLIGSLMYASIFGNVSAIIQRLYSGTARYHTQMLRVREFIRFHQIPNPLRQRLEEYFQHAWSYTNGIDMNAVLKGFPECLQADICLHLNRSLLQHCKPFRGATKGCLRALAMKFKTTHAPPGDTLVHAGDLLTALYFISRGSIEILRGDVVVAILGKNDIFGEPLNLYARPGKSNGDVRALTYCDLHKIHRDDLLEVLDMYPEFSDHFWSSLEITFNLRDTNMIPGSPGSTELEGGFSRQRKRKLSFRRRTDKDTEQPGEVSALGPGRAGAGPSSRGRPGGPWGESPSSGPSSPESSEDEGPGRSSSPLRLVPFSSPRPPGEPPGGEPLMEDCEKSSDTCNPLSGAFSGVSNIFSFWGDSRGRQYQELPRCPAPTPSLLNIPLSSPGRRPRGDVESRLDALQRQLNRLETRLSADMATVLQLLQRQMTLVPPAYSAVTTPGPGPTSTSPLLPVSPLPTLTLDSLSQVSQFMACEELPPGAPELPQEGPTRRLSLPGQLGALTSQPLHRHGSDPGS
Take `CCN(CC(=O)Nc1ccc(NC(C)=O)cc1)C(=O)CSC(=S)N1CCCC1`: the “hERG current change (%, negative = inhibition) at 1uM” value is 15.1%. Under `COCCN(C(=O)CN1CCN(S(=O)(=O)c2ccc(F)cc2)CC1)c1c(N)n(Cc2ccccc2)c(=O)[nH]c1=O` stands 14.5%; under `Cn1c(C(=O)N[C@@H](Cc2ccccc2)C(=O)NCCC(=O)O)cc2cc(Cl)ccc21`, 14.1%; under `O=C(Nc1ccc(C(F)(F)F)cc1)c1ccc2nc[nH]c2c1`, 14.1%. Then `Cc1cccc(CC(=O)N2CCN(C(=O)c3ccco3)CC2)c1`, with 5.56%. Under `CCOC(=O)c1c(S(=O)(=O)NCC(=O)Nc2cccc(F)c2)c(C)n(C)c1C` stands 10.8%. As to `O=C(CNC(=O)N1CC(=O)Nc2ccccc21)NCCc1ccc(Cl)cc1`, the “hERG current change (%, negative = inhibition) at 1uM” value stood at 13.5%. Then `CCCC(=O)N(c1ccc(C(=O)O)cc1)c1nc(-c2ccccc2)c(C)s1`, with 7.28%; and `CC(NC(=O)c1ccc2c(c1)OCCO2)c1ccc(S(N)(=O)=O)cc1` (stereo not drawn), with -3.42%.

For the compound `COc1cc(NC(=O)c2cccc(Cl)c2)c(OC)cc1NC(=O)CN1CCCCC1`, the “hERG current change (%, negative = inhibition) at 1uM” value is on record as 11.7%. `CCn1cc(CNC(=O)CCc2ccc(OC)cc2)cn1`: the “hERG current change (%, negative = inhibition) at 1uM” value was found to be 6.08%. Under `CO/N=C/c1ccc(N2CCOCC2)c([N+](=O)[O-])c1` stands 12.5%.

Consider `Cc1ccnc(NC(=O)c2cc(S(=O)(=O)NCc3ccccc3)ccc2C)c1`, for which the “hERG current change (%, negative = inhibition) at 1uM” value came to 4.6%. For `Cc1cccc(NC(=O)NNC(=O)c2c(Cl)c(C)nn2C)c1`, the “hERG current change (%, negative = inhibition) at 1uM” value turned out to be 12.3%. Under `COc1ccc(N2CCN(C(=O)CSc3nnnn3-c3ccc4c(c3)OCCO4)CC2)cc1` stands -0.828%.

In the case of `O=C(Nc1ccon1)Nc1cccc(Cl)c1Cl`, the “hERG current change (%, negative = inhibition) at 1uM” value is recorded as 9.81%. In the case of `O=c1cccc2n1CC1CNCC2C1` (stereo not drawn), the “hERG current change (%, negative = inhibition) at 1uM” value came out at 23.1%. Then `COc1ccc(NCC(O)COc2ccc(C(C)(C)C)cc2)cc1` (stereo not drawn), with 5.45%; and `O=S(=O)(c1ccc2c(c1)OCCO2)N1CCN(Cc2ccc3c(c2)OCO3)CC1`, with 4.33%; and `Cc1n[nH]c(C)c1CCN(C)C(=O)C1CCC(=O)N(CC2CCCCC2)C1` (stereo not drawn), with 16.3%. For `Cc1ccc(C)c(/C(O)=C2/C(=O)C(=O)N(CCN3CCOCC3)C2c2ccc(C)o2)c1` (stereo not drawn), the “hERG current change (%, negative = inhibition) at 1uM” value is 4.04%.

Regarding `CN1c2ccsc2C(O)=C(C(=O)Nc2ccccc2)S1(=O)=O`, the “hERG current change (%, negative = inhibition) at 1uM” value turned out to be 6.45%. Then `COc1ccc(NC(=O)CNS(=O)(=O)c2cccc3nonc23)c(OC)c1`, with -1.08%; and `COc1cc(C2C(C#N)=C(C)NC3=C2C(=O)c2ccccc23)cc(OC)c1OC` (stereo not drawn), with 16%; and `CC(C)(C)c1ccc(C(=O)NNC(=O)c2ccc(Cl)cc2)cc1`, with 4.09%. With `COc1ccc(C(C(=O)NC2CCCC2)N(Cc2ccc(F)cc2)C(=O)c2ccn[nH]2)cc1OC` (stereo not drawn), the “hERG current change (%, negative = inhibition) at 1uM” value is 11.6%. Under `Cc1ccc(-c2ccc(CCC(=O)O)n2CC2CCCO2)cc1` (stereo not drawn) stands 13.6%; under `CC1C/C(=C/c2ccco2)C(=O)/C(=C/c2ccco2)C1` (stereo not drawn), 13.6%; under `CCNS(=O)(=O)c1ccc(NS(C)(=O)=O)cc1`, 4.47%. Regarding `Cc1nc2cc(O)ccc2n1C`, the “hERG current change (%, negative = inhibition) at 1uM” value is 14.7%. Under `O=C(CN1CCSCC1)N/N=C/c1ccc(F)c(F)c1` stands -3.11%; under `CC(=O)Nc1ccc(NC(=O)C(C)OC(=O)c2cccc(S(=O)(=O)N3CCCC3)c2)cc1` (stereo not drawn), 9.69%; under `CN(CC(=O)Nc1cccc(F)c1)C(=O)c1sc2ccccc2c1Cl`, -6.05%. Then `CCOC(=O)C1CCCN(C(=O)COc2ccccc2F)C1` (stereo not drawn), with 18%. As to `CCCCn1c(-c2ccco2)n[nH]c1=S`, the “hERG current change (%, negative = inhibition) at 1uM” value is listed as 12.2%. Then `CN1C(=O)c2ccccc2C(C(=O)O)C1c1cccc(Cl)c1` (stereo not drawn), with 8.65%; and `O=C1COc2ccc(C(=O)c3ccccc3C(=O)NCc3ccccc3)cc2N1`, with 5.86%. In the case of `Cc1ccc(C)c(NC(=O)Cn2ccn(-c3ccc4c(c3)OCO4)c(=O)c2=O)c1`, the “hERG current change (%, negative = inhibition) at 1uM” value is recorded as 8.45%. For the compound `COc1ccccc1CNC(=O)COC(=O)c1cnccn1`, the “hERG current change (%, negative = inhibition) at 1uM” value came to 9.09%. Under `Cc1nc(CC(=O)N2CCN(c3cccc(C)c3C)CC2)cs1` stands -2.55%. As to `COc1ccc(CC(=O)OCC(=O)NC(=O)NC23CC4CC(CC(C4)C2)C3)cc1`, the “hERG current change (%, negative = inhibition) at 1uM” value is listed as -8.5%. Turning to `CC1CCCC(NC(=O)CN(C)S(=O)(=O)c2cnc[nH]2)C1C` (stereo not drawn), the “hERG current change (%, negative = inhibition) at 1uM” value amounted to 4.93%. Then `COc1ccccc1N1CCN(/N=C/c2cccc(O)c2)CC1`, with 15.7%; and `S=C(NCCCN1CCOCC1)Nc1ccc(Nc2ccccc2)cc1`, with 13.5%. Under `CC(C)CCC1(CN2CCCC2=O)C(=O)NC(=O)NC1=O` stands 14.8%; under `COc1ccc(OCC(=O)OCCNC(=O)c2cccnc2)cc1.Cl`, 14.7%; under `CCOc1cc(S(=O)(=O)NC2CCCC2)ccc1Cl`, 16.3%. Under `CCOc1ccccc1N1CCN(C(=O)Cc2ccc(S(=O)(=O)N3CCOCC3)s2)CC1` stands -8.55%; under `c1ccc(COc2nsnc2N2CCOCC2)cc1`, 7.91%.

Turning to `c1ccc(-c2ccc(OCCCn3cncn3)cc2)cc1`, the “hERG current change (%, negative = inhibition) at 1uM” value is on record as -7.58%. Under `COc1ccc(CCNC2CCCCC2)cc1OC.Cl` stands 9.2%; under `CCc1nc(SCC(=O)Nc2nnc(CC(C)C)s2)n[nH]1`, 19%. Then `Cc1cc(C)c(NC(=O)CNC(=O)c2ccc(-n3cncn3)c([N+](=O)[O-])c2)c(C)c1`, with 10.9%; and `COc1ccccc1CNC(=O)C(=O)NCC(c1ccco1)N1CCOCC1` (stereo not drawn), with 5.07%.

With `CN1CCN(C(=O)c2ccc3c(c2)NC(=O)C(C)(C)O3)CC1`, the “hERG current change (%, negative = inhibition) at 1uM” value is -1.46%. In the case of `CN(Cc1ccccc1)S(=O)(=O)c1ccc(OCC(=O)N2CCOCC2)cc1`, the “hERG current change (%, negative = inhibition) at 1uM” value is given as -0.797%. Under `CC1CCCN(C(=O)Cn2cnc3c2c(=O)n(C)c(=O)n3C)C1` (stereo not drawn) stands 12.7%; under `CC(C)CCSc1nc2c(c(=O)[nH]c(=O)n2C)n1CCc1ccccc1`, 7.85%; under `CC(C)NC(=O)NC(=O)CN1C(=O)NC2(CCc3ccccc3C2)C1=O` (stereo not drawn), 4.4%. Under `O=C(CCN1CCCC1=O)NC1CCCc2c1cnn2-c1ccccc1F` (stereo not drawn) stands 10.3%. Then `CCN1C(=O)c2cccc3c(S(=O)(=O)Nc4ccc(O)c(C(=O)O)c4)ccc1c23`, with 18.7%; and `Cc1ccc(NC(=S)NC(=O)c2ccc(-c3ccccc3)cc2)c(C)c1`, with 10.1%; and `O=C(COCc1cc(-c2ccc3c(c2)OCO3)on1)Nc1cccnc1Cl`, with 12.1%.

Regarding `O=C(c1ccco1)N1CCN(C(=S)Nc2cc(F)cc(F)c2)CC1`, the “hERG current change (%, negative = inhibition) at 1uM” value amounted to 11.6%. Under `Cc1ccc(-c2nn(CCC(=O)O)cc2CCC(=O)O)cc1` stands 10.3%. Under `O=C1c2ccccc2C(=O)c2c1cccc2N1CCOCC1` stands 0.232%; under `CCCN1CCC(=O)N([C@H](COc2ccccc2)CC(C)C)CC1`, -48.1%; under `CCc1nc(SCC(=O)N2CCN(c3ccccc3)CC2)c2oc3ccccc3c2n1`, 5%. Under `Cc1cc(C(=O)Nc2ccccc2C)n(-c2ccccc2)n1` stands 14.7%; under `Cc1c(-n2c(SCC(=O)NC(C)C)nc3ccccc3c2=O)c(=O)n(-c2ccccc2)n1C`, 12.8%; under `CC(C)(CO)NC(=O)C(Cc1ccccc1)N1C(=O)c2ccccc2C1=O` (stereo not drawn), 13.5%. Regarding `C=C(CO)C1Cc2cc(C(C)=O)ccc2O1` (stereo not drawn), the “hERG current change (%, negative = inhibition) at 1uM” value is 9%. As for `CCCn1cc(CN2CCC(n3nccc3NC(=O)c3ccccc3)CC2)c(C)n1`, the “hERG current change (%, negative = inhibition) at 1uM” value was -0.739%.

Turning to `CN(C)/C=C(\C#N)C(=O)N/N=C/c1ccc(F)cc1`, the “hERG current change (%, negative = inhibition) at 1uM” value is listed as 4.98%.

`O=C(CCCCCCC(=O)Nc1ccccc1)NO`: the “hERG current change (%, negative = inhibition) at 1uM” value came to 10.8%. Turning to `CCCn1nc(C(=O)NNC(=O)Cc2ccc(S(=O)(=O)N3CCOCC3)s2)c2ccccc2c1=O`, the “hERG current change (%, negative = inhibition) at 1uM” value worked out at 2.16%.

With `Cc1noc(C)c1C(=O)Nc1ccc2c(c1)CCC2`, the “hERG current change (%, negative = inhibition) at 1uM” value is recorded as 3.87%.

With `OCCOCCn1c(C(CO)Nc2nc(-c3ccc(Cl)cc3)cs2)nc2ccccc21` (stereo not drawn), the “hERG current change (%, negative = inhibition) at 1uM” value is listed as 5.34%.

`COCCNC(=O)c1ccc2c(c1)ncn2-c1cccc(C)c1`: the “hERG current change (%, negative = inhibition) at 1uM” value came out at 0.687%. Under `CCOC(=O)Nc1ccc2c(c1)N(C(=O)CCN1CCN(CCO)CC1)c1ccccc1S2.Cl` stands 3.53%; under `COCCCN1C(=O)c2ccc(C(=O)NCc3ccco3)cc2C1=O`, 1.6%. Under `CCn1ncc(C2=NOC(C(=O)NCCc3ccccc3)C2)c1C` (stereo not drawn) stands 4.86%; under `Cc1c(C(=O)OCC(=O)N2CCC(C)CC2)oc2ccccc12`, -3.05%; under `S=C(NCc1ccc(Cl)c(Cl)c1)Nc1ccc2c(c1)OCO2`, -1.56%.

With `CCc1ccccc1OC[C@@H](O)CN[C@H]1CCCc2ccccc21.O=C(O)C(=O)O`, the “hERG current change (%, negative = inhibition) at 1uM” value was found to be 4.4%. Under `COc1cc(CCC(=O)Nc2ccc(Cl)c(C(F)(F)F)c2)cc(OC)c1OC` stands 17.3%; under `CC1CC(C)CN(c2ccc(NS(=O)(=O)c3ccccc3)cc2C(=O)O)C1` (stereo not drawn), 1.93%. Then `COc1ccccc1-c1ccc2nnc(SCC(=O)N3CCCC3)n2n1`, with 11.8%; and `CCc1ccc(C(=O)Nc2cccc(-c3nn[nH]n3)c2)s1`, with 12%; and `COc1ccc(CC(NC(C)=O)C(=O)N2CCN(C(=O)Nc3cccc(F)c3)CC2)cc1OC` (stereo not drawn), with 7.65%.
